Reference: paper PMC6451091
The list shows a part of the results. For part of these data: At the low end of the ranking the order means little. For part of these data: The protein was read in a cell extract, so binding may be indirect.

Tests used:
PU.1 (IVT) = PU.1 (IVT) (UniProt P17947); assay: protein-binding microarray (PBM); settings: 20 mM HEPES pH 7.9, 100 mM NaCl, 1 mM DTT, 0.2 mg/mL BSA, 0.02% Triton X-100, 2% milk, 0.4 mg/mL salmon testes DNA; 1 h; temperature not stated; high values mean tight binding; double strand, one strand shown; sequences stand for … in GCCTAGCAC…GTGCTAGGTCTTGATTCGCTTGACGCTGCTG
[1] = biological target: PU.1 (endogenous, THP-1 nuclear extract) (UniProt P17947); assay: nuclear extract protein-binding microarray (nextPBM); settings: 20 mM HEPES pH 7.9, 100 mM NaCl, 1 mM DTT, 0.2 mg/mL BSA, 0.02% Triton X-100, 2% milk, 0.4 mg/mL salmon testes DNA; 1 h; temperature not stated; high values mean tight binding; double strand, one strand shown; sequences stand for … in GCCTAGCAC…GTGCTAGGTCTTGATTCGCTTGACGCTGCTG
[2] = biological target: T1, FLI1 (endogenous, THP-1 nuclear extract) (UniProt Q01543); assay: as above; settings: 20 mM HEPES pH 7.9, 100 mM NaCl, 1 mM DTT, 0.2 mg/mL BSA, 0.02% Triton X-100, 2% milk, 0.4 mg/mL salmon testes DNA; 1 h; temperature not stated; high values mean tight binding; double strand, one strand shown; sequences stand for … in GCCTAGCAC…GTGCTAGGTCTTGATTCGCTTGACGCTGCTG
T1 sequence: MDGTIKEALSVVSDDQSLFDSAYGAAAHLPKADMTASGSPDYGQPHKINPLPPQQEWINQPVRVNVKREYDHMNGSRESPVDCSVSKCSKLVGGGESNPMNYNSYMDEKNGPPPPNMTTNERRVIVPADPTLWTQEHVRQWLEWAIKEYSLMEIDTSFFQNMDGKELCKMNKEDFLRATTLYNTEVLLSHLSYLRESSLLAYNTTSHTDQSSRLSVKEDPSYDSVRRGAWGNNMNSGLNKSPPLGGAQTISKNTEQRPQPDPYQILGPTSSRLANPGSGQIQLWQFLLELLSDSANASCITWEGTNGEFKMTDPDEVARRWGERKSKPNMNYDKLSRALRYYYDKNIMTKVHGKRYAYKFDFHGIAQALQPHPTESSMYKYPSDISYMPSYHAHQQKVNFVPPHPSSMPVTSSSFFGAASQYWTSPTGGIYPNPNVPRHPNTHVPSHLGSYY

[3] = biological target: PU.1 (endogenous, THP-1 nuclear extract) (UniProt P17947); assay: nextPBM; settings: 20 mM HEPES pH 7.9, 100 mM NaCl, 1 mM DTT, 0.2 mg/mL BSA, 0.02% Triton X-100, 2% milk, 0.4 mg/mL salmon testes DNA, 1 h; temperature not stated; double strand, one strand shown; sequences stand for … in GCCTAGCAC…GTGCTAGGTCTTGATTCGCTTGACGCTGCTG
[4] = biological target: T2, IRF8 (endogenous, THP-1 nuclear extract) (UniProt Q02556); assay: nextPBM; settings: 20 mM HEPES pH 7.9, 100 mM NaCl, 1 mM DTT, 0.2 mg/mL BSA, 0.02% Triton X-100, 2% milk, 0.4 mg/mL salmon testes DNA, 1 h; temperature not stated; double strand, one strand shown; sequences stand for … in GCCTAGCAC…GTGCTAGGTCTTGATTCGCTTGACGCTGCTG
T2 sequence: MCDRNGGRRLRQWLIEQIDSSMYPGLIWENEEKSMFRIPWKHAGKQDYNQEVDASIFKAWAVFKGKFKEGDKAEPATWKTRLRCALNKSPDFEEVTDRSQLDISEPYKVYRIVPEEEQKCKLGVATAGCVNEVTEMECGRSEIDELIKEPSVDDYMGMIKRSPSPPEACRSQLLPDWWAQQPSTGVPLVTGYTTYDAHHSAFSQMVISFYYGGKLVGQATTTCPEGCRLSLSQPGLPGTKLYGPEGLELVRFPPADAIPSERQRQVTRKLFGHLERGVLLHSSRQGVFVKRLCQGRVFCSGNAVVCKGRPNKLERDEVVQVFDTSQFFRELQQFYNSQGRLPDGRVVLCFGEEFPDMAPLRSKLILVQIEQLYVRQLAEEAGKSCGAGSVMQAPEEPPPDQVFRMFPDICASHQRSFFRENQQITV

[5] = biological target: T1, FLI1 (endogenous, THP-1 nuclear extract); assay: nextPBM; settings: 20 mM HEPES pH 7.9, 100 mM NaCl, 1 mM DTT, 0.2 mg/mL BSA, 0.02% Triton X-100, 2% milk, 0.4 mg/mL salmon testes DNA, 1 h; temperature not stated; double strand, one strand shown; sequences stand for … in GCCTAGCAC…GTGCTAGGTCTTGATTCGCTTGACGCTGCTG

Sequence	binding signal (PU.1 (IVT))	binding signal [1]	binding signal [2]	binding signal [3]	binding signal [4]	binding signal [5]
CGAACGGGGAAGTGCTAAAC	3.27 z-score	3.01 z-score	1.3 z-score			
AAAAAAAGGAACTGGCTTGA	4.72 z-score	4.4 z-score	1.47 z-score			
GAAAAGAGGAACTGTGCAGG	6.68 z-score	6.59 z-score	2.62 z-score			
AGAATGAGGAAATGGACATT	4.43 z-score	4.67 z-score	2.29 z-score			
GAGGAAGGGAAGTGGATAGA	2.89 z-score	2.72 z-score	2 z-score			
TGAAAGAGGAAGTGCAAACA	7.72 z-score	7.05 z-score	3.91 z-score			
GAGAAGAGGAAGTCCTCTGT	6.09 z-score	6.39 z-score	3.19 z-score			
ACGAAGAGGAAGTAAAAGGC	6.54 z-score	6.21 z-score	2.89 z-score			
AAATAGAGGAAGTCAGAGAG	6.22 z-score	6.71 z-score	3.05 z-score	6.77 z-score		
TGATTGGGGAAGTGGTAAGT	5.18 z-score	5.29 z-score	1.99 z-score			
GAAAAGAGGAAGTCAAACTT	8.22 z-score	7.45 z-score	4.12 z-score			
GAAATCAGGAAGTGAACTCT	6.18 z-score	6.49 z-score	3.79 z-score			
TAAAAGAGGAAGTGGCAGAT			4.62 z-score	8.54 z-score	0.184 z-score	
AGGCTGAGGAAGTGGGATCT	2.87 z-score	2.71 z-score	1.96 z-score			
CAAAAAGGGAAGTGGATCCT	6.43 z-score	6.84 z-score	3.18 z-score			
GAAAAGAGGAAGTGTGAGAT	8.2 z-score	7.45 z-score	4.53 z-score			
CAAATGAGGAAGTGAGACTT			3.73 z-score	8.32 z-score	9.42 z-score	
GAAAAGGGGAAGTGTATTCC			3.67 z-score	7.97 z-score		3.67 z-score
GAAAAGAGGAAGTCATCTTC	8.33 z-score	7.29 z-score	4.26 z-score			
ATAAGGAGGAAGTGAGACAG	4.54 z-score	5.01 z-score	2.72 z-score	4.74 z-score	-0.052 z-score	
